In the RNAGym collection of RNA variant scans (doi:10.7554/elife.90254):
The source gives no read counts; variants with many changes may rest on few reads.

B1: OR4K15 (parent)
chain: GUUAACGGUCAUAGGCCAUGGAAACUAGGAGCACCAUUUCGCUGCCAGUGAAGAAAUGAACAAAGAAAAUCUGGGCCAGGCAGGCAUCAAAAGAAAUAGUCUUGCGCUCAACCAGAAAGUCUGUAAUCAUUUUAAGGGUA

Variants of: B1
Assay: self-cleavage, relative activity (ratio to wild type); higher = more cleavage; in vitro, sequencing; the parent is a self-cleaving ribozyme

Row | Variant | self-cleavage
1 | A5G A23G U26C | 1.07
2 | A22G U43A A110G | 0.09
3 | U19C U57C A92G U100C | 1.55
4 | A5C U38C A68G U122A | 0.87
5 | A67G C109U A114U | 0.08
6 | C35U U37C A90G | 1.18
7 | A5G U9C U49C | 1.34
8 | U39C A54U U108C A111G | 0.01
9 | A4G A63G A64G U87C A117G | 2.16
10 | U12C A13G U19C | 1.07
11 | A60G A67G U122C | 1.62
12 | U43C C45U A62G A94G A114G | 0.21
13 | U19C A60C G74C U130C | 0.15
14 | U9C G74U U102A A134G | 0.09
15 | U26C A78G A91G A116G | 0.04
16 | A27U A64U A96G U103C A114G | 0.25
17 | A24G U38C A64G A86G U103C U131C | 1.18
18 | A4G A54G U57C A63U U97A | 1.75
19 | U57C U70C U102A | 0.15
20 | A5U A22U A59G U108C A116G | 0.04
21 | A24G A59C A90G | 0.45
22 | A23G A64U A114U | 0.07
23 | G41A A52G A117U | 1.22
24 | G31A A91G A126G U132C | 0.91

Row | Variant | self-cleavage
25 | A36U U57C A59G U130C | 0.95
26 | A36C A96G U133C | 2.18
27 | A68G A91G A94G U131C G137U | 0.75
28 | A54G A60G U87C U139A | 0.75
29 | A55G A67G A116G | 0.18
30 | A47G A55G U103C | 0.27
31 | A24G U43G A64G A96G | 1.22
32 | U2C U37A A68G | 1.08
33 | A23G A63G A95G U100G | 1.1
34 | A18G U49A A67G A68G A94G U100C A126C U131C | 0.68
35 | A5U A36G U38C U131C | 1.78
36 | U19C A60G A67U A114U | 0.21
37 | U39C A51G U124C U127C | 0.73
38 | A22G A82C U122A | 0.18
39 | A68G U97C U131C | 0.98
40 | U38C A90G A114G | 0.19
41 | U12A A22G A52G A59G U70C | 0.62
42 | U39C U43G U72C | 0.33
43 | A11G U19C A51U A86G A98G | 0.61
44 | A24G A67G U100C | 1.94
45 | A18C A33G A91C | 0.45
46 | U2C U38C A51G A62G A69G | 0.85
47 | U43C A55G G84A | 2.62
48 | A52G A55G A67G | 1.08

Row | Variant | self-cleavage
49 | A89U A126G U127A | 0.59
50 | U12C A54C A92G | 0.81
51 | A18G A63G A111U | 0.17
52 | A24G C34U A118U | 0.98
53 | A54U A56G A60G | 1.22
54 | A78G U103C A116G A140G | 0.13
55 | A36C A56G A125U | 1.61
56 | A18C A69G A111G | 0.02
57 | A66G A78U G138A | 0.18
58 | U9C A55G U132C | 1.16
59 | A22G A63U G75C U87C | 0.19
60 | A52G A111G U120C | 0.01
61 | A13G A60G G84A | 1.07
62 | U39C C76U U139C | 0.09
63 | U12A U19C A54G A55U U87C | 0.37
64 | A22G U37C G44A U103A | 1.11
65 | A56G A82U A94G A96G U122A | 0.07
66 | A114U U120C C121A | 0.1
67 | A51G C61U A64U A96G C128U | 1.29
68 | U38C U43C A78U U102C U130C | 1
69 | U2A A23G A68C A86G | 0.88
70 | C42A A67G U139A | 1.72
71 | A5G U39A A135G | 1.04
72 | A64G A66G A68G C109U | 0.29

Row | Variant | self-cleavage
73 | U102G U122C U131C U132C | 0.33
74 | A82U U100A A110G U127C | 0.16
75 | A47G G83A A111G | 0.02
76 | A47U A64G C71A | 0.44
77 | U102C A114U U124A | 0.04
78 | A78U A98G U130C | 0.05
79 | A60U U72A A91U U100A | 0.03
80 | A22G A55G A59U A82G | 0.31
81 | U57C A59G A89G | 1.91
82 | A51G U102G U122C A129G G137U | 0.55
83 | U37C A52U U103C | 1.44
84 | U49C U100C U122C | 1.51
85 | A60G A66G A94G U120C | 1.59
86 | A54G A56G A60G | 1.25
87 | A11U A94G U97C U120C | 0.27
88 | A5G A82G U120C | 0.5
89 | A33U A55U A78G | 0.54
90 | U9C A11G A33U U122C | 0.85
91 | A30U A96U U127C | 1.22
92 | A33G A92G A117G U120C | 0.14
93 | G74U A86G A89G A90G G106A U108C | 0.01
94 | U9C U38C A118C | 1.4
95 | U9C A51G A69G U100C | 2.75
96 | A47U A60G U100C | 2.04

Row | Variant | self-cleavage
97 | A23G U70A A116G | 0.81
98 | A92G A117G A125U | 0.67
99 | A11G A13G U87C U122C | 0.05
100 | U9C A55G A56G | 0.74
101 | U9G A33G A51U A69C U124A | 0.98
102 | A56G A59U U133A | 1.82
103 | A24G U43C U103C | 1.26
104 | U37C A52G A67G A95G | 2.45
105 | U3A A27G A90G | 1.13
106 | U72C A111G A126G | 0.01
107 | A23G A68G A69G A118U | 0.58
108 | A18C U87A U133C | 0.38
109 | U9C A24U U49A A52G | 0.96
110 | A33G U57C U100C A117G | 1.73
111 | A23G A55G A82G U122C U127C U132C | 0.17
112 | A11U U43C A55G | 1.52
113 | A5G U37C A68U A96G U130C | 0.9
114 | A22G U26C G28C A60G U132C | 0.87
115 | U87C A91U G106A | 0.08
116 | A23U C45G A78U A110G | 0.13
117 | A5G A55G A68G | 0.51
118 | A23G A60G A62U A90G U103C U120G U122C U132C | 0
119 | A90G U122C A135G | 0.85
120 | A18G U19C A54G U122C | 1.15

Row | Variant | self-cleavage
121 | A13U A52G A78U A117G | 0.39
122 | U19C A54G U131C | 0.98
123 | A60G A78C U87C A89U | 0.07
124 | G44U A66G A91C | 2.03
125 | U12C A59G A126G | 1.2
126 | C32U A51G A90G | 1.99
127 | G1U U2A A116G A135G | 0.7
128 | U43C A52G A92G U108C | 0.01
129 | A82U U97A U102C | 0.37
130 | U2C U57C A117G A135G | 1.52
131 | U19G A66G U102A | 1.47
132 | A60G A78G A111G | 0.03
133 | A54C A92G A94G | 1.69
134 | U12C A30G A52U | 0.87
135 | U2A G20A A59G | 1.15
136 | A66G U103C A111G | 0.01
137 | A47G A60U U130C | 1.42
138 | A23G A64G A114G | 0.46
139 | U57C A67G A116G | 0.61
140 | A86G A92G A118U | 0.62
141 | U9C A52G A54U A55G | 1.16
142 | U26C U70C A89C A92G | 0.25
143 | U19A U97A U139C | 1.98
144 | A23G A62G A111G | 0.09

Row | Variant | self-cleavage
145 | U9C A18U A24C A56U C76A A89G A94G | 0.13
146 | A55G A89G G93U | 0.61
147 | U2C A30G A86G | 0.38
148 | A67G C81A A111G | 0.03
149 | A24G A91G A94G A114U A126C A135G | 0.01
150 | A59G A96G U102C | 1.62
151 | A95U U103C A118G | 0.89
152 | U9C G28C A94G A117U | 1.2
153 | A4G A5G U38C U131C | 1.98
154 | U37C A82G U130C | 0.33
155 | A54G A60G A116U | 0.14
156 | U3A A94G U122G | 2.71
157 | A89C A92C A116G A135G | 0.09
158 | U2C A5G A23U G58A A117G | 1.24
159 | A47U A66G U102A | 0.24
160 | A47U A62G U72C A82G U103C A111G A116U | 0
161 | U2C A60G A117G | 0.78
162 | U2C A23G A94U A95U A140G | 1.45
163 | A23G A33G A78G C112U | 0.03
164 | A30C U100C A110G U124C | 0.12
165 | U2C A30G A117G | 1.19
166 | G7A U39C A66U A78C U108C | 0.02
167 | C40G A52U A82G U87C A129U | 0.19
